# From PMC4336329 (PLoS ONE, 2015)
# The whole screen tested about 310,000 compounds, of which about 14,000 (4.5%) showed an effect of 50% or more. The effect is printed as a negative number. The list shows a part of the results.
# Molecular target: human ether-à-go-go-related gene (hERG) potassium channel (human, UniProt Q12809)
# Experiment: primary screen, population patch clamp on CHO cells stably expressing hERG
# 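Also: peak tail current of the secondary pulse compared with the same well before compound.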
# Chain of human ether-à-go-go-related gene (hERG) potassium channel (Q12809 whole entry, looked up): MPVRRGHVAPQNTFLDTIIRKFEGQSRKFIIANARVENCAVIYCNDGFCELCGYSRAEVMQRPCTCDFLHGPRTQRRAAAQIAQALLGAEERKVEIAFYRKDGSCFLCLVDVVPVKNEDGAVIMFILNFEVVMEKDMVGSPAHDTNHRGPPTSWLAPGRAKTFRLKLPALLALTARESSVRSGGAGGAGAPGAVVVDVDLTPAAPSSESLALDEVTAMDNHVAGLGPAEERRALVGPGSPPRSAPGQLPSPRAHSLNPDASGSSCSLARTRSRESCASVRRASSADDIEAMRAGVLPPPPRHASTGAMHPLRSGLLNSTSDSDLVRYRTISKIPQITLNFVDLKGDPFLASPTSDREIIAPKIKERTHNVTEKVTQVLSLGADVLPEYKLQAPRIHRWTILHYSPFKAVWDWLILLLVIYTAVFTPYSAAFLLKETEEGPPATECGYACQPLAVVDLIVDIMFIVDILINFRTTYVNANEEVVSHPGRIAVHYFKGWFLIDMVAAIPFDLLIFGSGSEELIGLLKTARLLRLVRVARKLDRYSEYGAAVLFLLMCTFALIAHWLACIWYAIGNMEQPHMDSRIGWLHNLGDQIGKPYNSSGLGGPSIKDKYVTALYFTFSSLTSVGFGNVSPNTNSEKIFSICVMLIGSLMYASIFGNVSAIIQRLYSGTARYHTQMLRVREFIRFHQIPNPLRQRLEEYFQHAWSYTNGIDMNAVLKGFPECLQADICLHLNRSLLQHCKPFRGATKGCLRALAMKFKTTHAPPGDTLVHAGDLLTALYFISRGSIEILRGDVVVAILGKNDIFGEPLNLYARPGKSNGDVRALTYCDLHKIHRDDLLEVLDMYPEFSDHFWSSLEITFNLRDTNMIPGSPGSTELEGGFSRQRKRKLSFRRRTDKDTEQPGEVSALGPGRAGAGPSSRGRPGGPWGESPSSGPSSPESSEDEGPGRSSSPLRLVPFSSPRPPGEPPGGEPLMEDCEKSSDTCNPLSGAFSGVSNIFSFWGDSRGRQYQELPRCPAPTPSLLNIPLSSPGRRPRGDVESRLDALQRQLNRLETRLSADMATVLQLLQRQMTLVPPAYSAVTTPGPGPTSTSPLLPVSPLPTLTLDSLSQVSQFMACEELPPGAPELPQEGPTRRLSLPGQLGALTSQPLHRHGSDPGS
row,Structure (SMILES),"hERG current change (%, negative = inhibition) at 10uM [%]"
1,CCOC(=O)C1CCN(S(=O)(=O)c2c(C)[nH]c(=O)[nH]c2=O)CC1,-0.439
2,COc1ccc(C(=O)C[n+]2ccc3c(c2)nc(-c2ccc(OC)cc2OC)n3C)cc1.[Br-],8.64
3,COCCN(C(=O)CSc1nc2nc(C)cc(C)n2n1)c1c(N)n(Cc2ccccc2)c(=O)[nH]c1=O,38
4,CC(C)OP(=O)(OC(C)C)C(Nc1ccc(C(=O)O)cc1)c1ccccc1 (stereo not shown),16.1
5,O=C1C(Cc2c[nH]c3ccccc23)NC(=S)N1C1CCCCC1 (stereo not shown),-8.05
6,CCOc1cccc(-c2nnc3sc(COc4ccc(Cl)cc4)nn23)c1,5.67
7,COc1cc(C(=O)NC(C)c2ccc(S(N)(=O)=O)cc2)ccc1OCC(=O)N1CCOCC1 (stereo not shown),12.1
8,CS(=O)(=O)N(CC(=O)NCc1ccccc1Cl)C1CCCCC1,1.61
9,O=C(O)/C=C/C(=O)Nc1ccc(Oc2ccc(NC(=O)/C=C/C(=O)O)cc2)cc1,-0.495
10,CC(C)n1c(N2CCN(S(=O)(=O)c3cccc([N+](=O)[O-])c3)CC2)nc2ccccc21,-71
11,COCCN(C(=O)COC(=O)CCCOc1ccccc1)c1c(N)n(Cc2ccccc2)c(=O)[nH]c1=O,-1.4
12,COc1ccc(NC(=O)c2ccc(Br)c(S(=O)(=O)N3CCOCC3)c2)cc1,1.53
13,COc1cc(C(C)=O)ccc1COc1ccc(C(=O)O)cc1OC,20.3
14,O=C(NCc1ccc2c(c1)OCO2)Oc1ccccc1,-24.4
15,Cc1cccc2cc(CN(C(=O)c3cccs3)c3ccccc3)c(=O)[nH]c12,9.62
16,CCCCCn1c(=S)[nH]c2cc(C(=O)N3CCCC3)ccc2c1=O,8.43
17,O=C1/C(=C/c2cccs2)CCC/C1=C\c1cccs1.O=S(=O)(O)O,15.3
18,O=C(NC(=S)NCc1ccccc1)c1cccc([N+](=O)[O-])c1,-31.8
19,O=C(N/N=C/c1cccs1)c1cc(C2CC2)nc2ccccc12,-10.6
20,O=C(NC1CCCCCC1)c1ccc(CS(=O)Cc2ccccc2Cl)o1 (stereo not shown),-31.1
21,OCCC1CN(Cc2cc3c(cc2Cl)OCO3)CCN1Cc1ccccc1 (stereo not shown),-45.3
22,CN(C)c1ccc(/C=C2\N=C(C(C)(C)C)OC2=O)cc1,19.9

row,Structure (SMILES),"hERG current change (%, negative = inhibition) at 10uM [%]"
1,O=C(OC(C(=O)Nc1cc(Cl)cc(Cl)c1)c1ccccc1)C1=COCCO1 (stereo not shown),-2.43
2,COc1ccc(-c2csc(NC(=O)CSCC(=O)Nc3cc(C)on3)n2)cc1,3.94
3,O=C(CCCNC(=O)/C(=C/c1ccc(F)cc1)NC(=O)c1ccccc1)OCc1ccccc1,-64.3
4,COc1ccc(Cl)cc1C(=O)NNC1CC(=O)N(Cc2ccc(Cl)cc2)C1=O (stereo not shown),-27.8
5,O=C(COC(=O)CCC1CCCC1)Nc1ccc(Cl)cn1,15.2
6,CCOc1ccc(N=C2NC(=O)C(CC(=O)Nc3ccccc3)S2)cc1 (stereo not shown),14.9
7,CCOC(=O)CSc1nc2cc(C(=O)OC)ccc2c(=O)n1CCN1CCOCC1,-38.4
8,COc1cccc(NC(=O)C(=O)NCCCn2ccnc2)c1,17.6
9,COc1ccc(NC(=O)c2ccccc2NC(=O)c2ccccc2)cc1,28.5
10,COC(=O)Cn1c(CN2CCC(Cc3ccccc3)CC2)nc2c1c(=O)n(C)c(=O)n2C,8.46
11,CC(C)n1nc(C(=O)Nc2cccc(S(=O)(=O)N3CCCCC3)c2)c2ccccc2c1=O,-2.92
12,Cc1csc(SCC(=O)O)n1,12
13,CC(C)C(=O)Nc1ccc([N+](=O)[O-])c(C(F)(F)F)c1,-8.02
14,CCN(CC)C(=O)C1CCCN(c2ccccc2[N+](=O)[O-])C1 (stereo not shown),-1.67
15,C=CCN(c1ccccc1)S(=O)(=O)c1cccc(C(=O)O)c1,16
16,Cl.O=C(NC12CC3CC(CC(C3)C1)C2)OC1CN2CCC1CC2 (stereo not shown),-20.6
17,Cn1nc(CC(=O)NC2CCCCCCCCCCC2)c2ccccc2c1=O,-6.93
18,CC(=O)OC1=CC[C@H]2[C@@H]3CC[C@H]4C[C@H](OC(C)=O)[C@@H](OC(C)=O)C[C@]4(C)[C@H]3CC[C@]12C,3.92
19,Cc1cnc(CNC(=O)c2ccc3oc(Cc4ccccc4)nc3c2)[nH]1,5.13
20,CC[C@@]12C(=O)N(c3ccc(OC)cc3)C(=O)N1[C@H](c1ccc(Cl)cc1)[C@@H]1C(=O)N(C3CCCCC3)C(=O)[C@@H]12,-2.13
21,O=C(NC1CCCN(c2ccc(C(F)(F)F)cn2)C1)c1ccncc1 (stereo not shown),-69.2
22,CC(C)Oc1ccc(C(=O)NCC(=O)OCC(=O)N(C)Cc2cccs2)cc1,-15.9

row,Structure (SMILES),"hERG current change (%, negative = inhibition) at 10uM [%]"
1,COC(=O)C(Cc1ccccc1)NC(=O)c1cc(=O)[nH]c2ccccc12 (stereo not shown),17.6
2,Oc1ccc(/C=N/n2cnn(Cc3ccccc3Cl)c2=S)c(O)c1,7.75
3,O=S(=O)(NCc1ccco1)N1CCOCC1,15.1
4,COc1ccc(C2=NOC(Cn3nc(-c4ccccc4C)cc3C(=O)O)C2)cc1 (stereo not shown),2.44
5,Cc1cccn2c(=O)c3cc(C(=O)NC4CCCCC4)c(=N)n(Cc4ccc(F)cc4)c3nc12,-77.1
6,COC(=O)CN(c1cccc(C(C)=O)c1)S(C)(=O)=O,9.02
7,O=C(N/N=C/c1cc(Br)cc(Br)c1O)c1cccc(N2CCCC2=O)c1,19.4
8,Cn1nc(-c2ccc(OCC(=O)NCC3CCCO3)cc2)c2ccccc2c1=O (stereo not shown),-1.44
9,Cc1ccc(C(=O)Nc2cccc(S(=O)(=O)N3CCOCC3)c2)cc1[N+](=O)[O-],24.5
10,O=C(Cn1cc2c(n1)CCCCC2)Nc1ccccc1Cl,-6
11,Cc1cc(C(F)(F)F)nn1Cc1n[nH]c(=S)n1Cc1ccccc1,7.66
12,CC(=O)Nc1ccc(NC(=O)N2CCCCC2)cc1,-0.952
13,Cn1c(/C=C/c2cccc(Br)c2)nc2ccccc2c1=O,19
14,Cc1ccsc1C(=O)OCC(=O)c1ccc[nH]1,-14.7
15,O=C(O)CCC1(CCC(=O)O)c2ccccc2-c2ccccc21,8.34
16,CC1CCN(S(=O)(=O)c2ccc(N/N=C(/C#N)C(N)=O)cc2)CC1,4.9
17,Cn1c(CN2CCOCC2)nnc1SCC(=O)Nc1nccs1,5.47
18,CC(=O)c1ccc(N=C2NC(=O)C(CO)(CO)S2)cc1,-2.03
19,CCCn1c(=O)c2c(c3ccccc31)OC(C)C(=O)N2 (stereo not shown),-6.2
20,CCCCC1(C)OC(=O)C(=Cc2c[nH]c3ccccc23)C(=O)O1 (stereo not shown),17.7
21,Cc1nnc2nc(-c3ccccc3)nc(-c3ccccc3)n12,19.5
22,Cc1c(NC(=O)c2csc3c2CCCC3)c(=O)n(-c2ccccc2)n1C,21.1

row,Structure (SMILES),"hERG current change (%, negative = inhibition) at 10uM [%]"
1,COP(=O)(/C=C/c1ccccc1)C(O)c1ccc(F)cc1 (stereo not shown),21.5
2,COc1ccc(CC(O)COS(N)(=O)=O)cc1 (stereo not shown),13.2
3,COC(=O)c1sc(C(C)(C)C)cc1CSc1ccccc1,-7.27
4,Clc1ccc(CNCc2cccs2)c(Cl)c1,9.16
5,Cc1ccc(/C=C2/SC(=S)N(CCC(=O)N3CCOCC3)C2=O)cc1,9.61
6,CS(=O)(=O)c1ccc(NCCN2CCOCC2)c([N+](=O)[O-])c1,16.8
7,CCOC(=O)N1CCN(S(=O)(=O)c2ccc(C)cc2)CC1,17.9
8,CCOC(=O)CCc1c(C)c2ccc3c(c2oc1=O)CN(CCCO)CO3,21.6
9,CCOC(=O)CCP(=O)(O)C(O)c1ccc(OC)cc1 (stereo not shown),13.1
10,C=CCn1c(CNC(=O)c2ccccc2C)nnc1SCC(=O)NC1CCCC1,6.72
11,CC(=O)c1sc(NC(=O)C2CCCN2S(=O)(=O)c2ccccc2F)nc1C (stereo not shown),15.5
12,CCCOCC(O)CC(CC)C(=O)NNC(=S)Nc1ccccc1 (stereo not shown),14.9
13,CC(C)(C)C1COc2ccccc2N1C(=O)c1cccc(Cl)c1 (stereo not shown),9.89
14,Cc1cc(C)c2nc(NNC(=O)c3cc(=O)c4ccccc4o3)sc2c1,8.98
15,COc1ccc(OCC(=O)N/N=C/c2ccc(N(C)C)cc2)cc1,12.2
16,Cn1nc(C(F)(F)F)c(-c2cccc(C(F)(F)F)c2)c1NC(=O)CSCC(=O)O,1.52
17,CS(=O)(=O)N1CCc2cc(C(=O)Nc3ccccc3)ccc21,-1.25
18,c1cc(-c2sc(-c3ccncc3)c(-c3ccncc3)c2-c2ccncc2)ccn1,-66.6
19,CCOC(=O)C1CCCN(C(=O)c2cn(CC)c(=O)c3cc(OC)c(OC)cc23)C1 (stereo not shown),12.3
20,Cc1cccc(OCCCC(=O)Nc2ccc(S(=O)(=O)Nc3nccs3)cc2)c1C,10.7
21,COc1nc(NC2CCCCC2)nc(NC(C)(C)C)n1,-32.9
22,CCc1nnc(NC(=O)CC(C)c2ccccc2)s1 (stereo not shown),14.6
